# Laboratory results published in the supplement of paper PMC8728848.
# Some of the results follow.
# B1: OGAN (protein)
# chain: MVQKESQATLEERESELSSNPAASAGASLEPPAAPAPGEDNPAGAGGAAVAGAAGGARRFLCGVVEGFYGRPWVMEQRKELFRRLQKWELNTYLYAPKDDYKHRMFWREMYSVEEAEQLMTLISAAREYEIEFIYAISPGLDITFSNPKEVSTLKRKLDQVSQFGCRSFALLFNDIDHNMCAADKEVFSSFAHAQVSITNEIYQYLGEPETFLFCPTEYCGTFCYPNVSQSPYLRTVGEKLLPGIEVLWTGPKVVSKEIPVESIEEVSKIIKRAPVIWDNIHANDYDQKRLFLGPYKGRSTELIPRLKGVLTNPNCEFEANYVAIHTLATWYKSNMNGVRKDVVMTDSEDSTVSIQIKLENEGSDEDIETDVLYSPQMALKLALTEWLQEFGVPHQY
# Experiments:
# Assay in all cases: glycan array binding signal (z-score within array); higher = stronger binding
# Conditions in all cases: glycan notation: IUPAC condensed, linker removed
# [1] = biological target: GlcNAc(b1-2)[GlcNAc(b1-4)]Man(a1-3)[GlcNAc(b1-4)][GlcNAc(b1-2)[GlcNAc(b1-6)]Man(a1-6)]Man(b1-4)GlcNAc(b1-4)GlcNAc
# How it was run: (§1)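 From the Consortium for Functional Glycomics database, 3228 arrays were curated, keeping only those whose protein sequence was available. Binding is given as a within-array Z-score averaged across arrays sharing a protein sequence and across linkers. Negative Z-scores can be read as non-binding.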
# [2] = biological target: GlcNAc(b1-2)[GlcNAc(b1-4)]Man(a1-3)[GlcNAc(b1-4)][GlcNAc(b1-2)[GlcNAc(b1-6)]Man(a1-6)]Man(b1-4)GlcNAc(b1-4)[Fuc(a1-6)]GlcNAc
# How it was run: as §1
# [3] = biological target: GlcNAc(b1-2)[GlcNAc(b1-6)]Man(a1-6)[GlcNAc(b1-2)Man(a1-3)]Man(b1-4)GlcNAc(b1-4)GlcNAc
# How it was run: as §1
# [4] = biological target: GlcNAc(b1-2)[GlcNAc(b1-6)]Man(a1-6)[GlcNAc(b1-2)Man(a1-3)]Man(b1-4)GlcNAc(b1-4)[Fuc(a1-6)]GlcNAc
# How it was run: as §1
# [5] = biological target: GlcNAc(b1-2)[GlcNAc(b1-6)]Man(a1-6)[GlcNAc(b1-4)][GlcNAc(b1-2)Man(a1-3)]Man(b1-4)GlcNAc(b1-4)GlcNAc
# How it was run: as §1
# [6] = biological target: GlcNAc(b1-3)Fuc
# How it was run: as §1
# [7] = biological target: GlcNAc(b1-3)Gal
# How it was run: as §1
# [8] = biological target: GlcNAc(b1-3)Gal(b1-3)GalNAc
# How it was run: as §1
# [9] = biological target: GlcNAc(b1-3)Gal(b1-4)Glc
# How it was run: as §1
# [10] = biological target: GlcNAc(b1-3)Gal(b1-4)GlcNAc
# How it was run: as §1
# [11] = biological target: GlcNAc(b1-3)Gal(b1-4)GlcNAc(b1-2)Man(a1-3)[GlcNAc(b1-3)Gal(b1-4)GlcNAc(b1-2)Man(a1-6)]Man(b1-4)GlcNAc(b1-4)GlcNAc
# How it was run: as §1
# [12] = biological target: GlcNAc(b1-3)Gal(b1-4)GlcNAc(b1-2)Man(a1-3)[GlcNAc(b1-3)Gal(b1-4)GlcNAc(b1-2)Man(a1-6)]Man(b1-4)GlcNAc(b1-4)[Fuc(a1-6)]GlcNAc
# How it was run: as §1
# [13] = biological target: GlcNAc(b1-3)Gal(b1-4)GlcNAc(b1-2)[GlcNAc(b1-3)Gal(b1-4)GlcNAc(b1-6)]Man(a1-6)[GlcNAc(b1-3)Gal(b1-4)GlcNAc(b1-2)Man(a1-3)]Man(b1-4)GlcNAc(b1-4)GlcNAc
# How it was run: as §1
# [14] = biological target: GlcNAc(b1-3)Gal(b1-4)GlcNAc(b1-3)Gal(b1-4)GlcNAc
# How it was run: as §1
# [15] = biological target: GlcNAc(b1-3)Gal(b1-4)GlcNAc(b1-3)Gal(b1-4)GlcNAc(b1-2)Man(a1-3)[GlcNAc(b1-3)Gal(b1-4)GlcNAc(b1-3)Gal(b1-4)GlcNAc(b1-2)Man(a1-6)]Man(b1-4)GlcNAc(b1-4)GlcNAc
# How it was run: as §1
# [16] = biological target: GlcNAc(b1-3)Gal(b1-4)GlcNAc(b1-3)Gal(b1-4)GlcNAc(b1-2)Man(a1-3)[GlcNAc(b1-3)Gal(b1-4)GlcNAc(b1-3)Gal(b1-4)GlcNAc(b1-2)Man(a1-6)]Man(b1-4)GlcNAc(b1-4)[Fuc(a1-6)]GlcNAc
# How it was run: as §1
# [17] = biological target: GlcNAc(b1-3)Gal(b1-4)GlcNAc(b1-3)Gal(b1-4)GlcNAc(b1-2)[GlcNAc(b1-3)Gal(b1-4)GlcNAc(b1-3)Gal(b1-4)GlcNAc(b1-6)]Man(a1-6)[GlcNAc(b1-3)Gal(b1-4)GlcNAc(b1-3)Gal(b1-4)GlcNAc(b1-2)Man(a1-3)]Man(b1-4)GlcNAc(b1-4)[Fuc(a1-6)]GlcNAc
# How it was run: as §1
# [18] = biological target: GlcNAc(b1-3)Gal(b1-4)GlcNAc(b1-3)Gal(b1-4)GlcNAc(b1-3)Gal(b1-4)GlcNAc(b1-2)Man(a1-3)[GlcNAc(b1-3)Gal(b1-4)GlcNAc(b1-3)Gal(b1-4)GlcNAc(b1-3)Gal(b1-4)GlcNAc(b1-2)Man(a1-6)]Man(b1-4)GlcNAc(b1-4)GlcNAc
# How it was run: as §1
# [19] = biological target: GlcNAc(b1-3)Gal(b1-4)GlcNAc(b1-3)Gal(b1-4)GlcNAc(b1-3)Gal(b1-4)GlcNAc(b1-2)Man(a1-3)[GlcNAc(b1-3)Gal(b1-4)GlcNAc(b1-3)Gal(b1-4)GlcNAc(b1-3)Gal(b1-4)GlcNAc(b1-2)Man(a1-6)]Man(b1-4)GlcNAc(b1-4)[Fuc(a1-6)]GlcNAc
# How it was run: as §1
# [20] = biological target: GlcNAc(b1-3)Gal(b1-4)GlcNAc(b1-3)Gal(b1-4)GlcNAc(b1-3)Gal(b1-4)GlcNAc(b1-2)[GlcNAc(b1-3)Gal(b1-4)GlcNAc(b1-3)Gal(b1-4)GlcNAc(b1-3)Gal(b1-4)GlcNAc(b1-6)]Man(a1-6)[GlcNAc(b1-3)Gal(b1-4)GlcNAc(b1-3)Gal(b1-4)GlcNAc(b1-3)Gal(b1-4)GlcNAc(b1-2)Man(a1-3)]Man(b1-4)GlcNAc(b1-4)[Fuc(a1-6)]GlcNAc
# How it was run: as §1
# [21] = biological target: GlcNAc(b1-3)Gal(b1-4)GlcNAc(b1-3)Gal(b1-4)GlcNAc(b1-3)Gal(b1-4)GlcNAc(b1-3)Gal(b1-4)GlcNAc(b1-2)Man(a1-3)[GlcNAc(b1-3)Gal(b1-4)GlcNAc(b1-3)Gal(b1-4)GlcNAc(b1-3)Gal(b1-4)GlcNAc(b1-3)Gal(b1-4)GlcNAc(b1-2)Man(a1-6)]Man(b1-4)GlcNAc(b1-4)GlcNAc
# How it was run: as §1
# [22] = biological target: GlcNAc(b1-3)Gal(b1-4)GlcNAc(b1-3)Gal(b1-4)GlcNAc(b1-3)Gal(b1-4)GlcNAc(b1-3)Gal(b1-4)GlcNAc(b1-2)Man(a1-3)[GlcNAc(b1-3)Gal(b1-4)GlcNAc(b1-3)Gal(b1-4)GlcNAc(b1-3)Gal(b1-4)GlcNAc(b1-3)Gal(b1-4)GlcNAc(b1-2)Man(a1-6)]Man(b1-4)GlcNAc(b1-4)[Fuc(a1-6)]GlcNAc
# How it was run: as §1
# [23] = biological target: GlcNAc(b1-3)Gal(b1-4)GlcNAc(b1-3)Gal(b1-4)GlcNAc(b1-3)Gal(b1-4)GlcNAc(b1-3)Gal(b1-4)GlcNAc(b1-2)[GlcNAc(b1-3)Gal(b1-4)GlcNAc(b1-3)Gal(b1-4)GlcNAc(b1-3)Gal(b1-4)GlcNAc(b1-3)Gal(b1-4)GlcNAc(b1-6)]Man(a1-6)[GlcNAc(b1-3)Gal(b1-4)GlcNAc(b1-3)Gal(b1-4)GlcNAc(b1-3)Gal(b1-4)GlcNAc(b1-3)Gal(b1-4)GlcNAc(b1-2)Man(a1-3)]Man(b1-4)GlcNAc(b1-4)[Fuc(a1-6)]GlcNAc
# How it was run: as §1
# [24] = biological target: GlcNAc(b1-3)Gal(b1-4)GlcNAc(b1-3)Gal(b1-4)GlcNAc(b1-3)GalNAc
# How it was run: as §1
# [25] = biological target: GlcNAc(b1-3)Gal(b1-4)GlcNAc(b1-3)GalNAc
# How it was run: as §1
# [26] = biological target: GlcNAc(b1-3)Gal(b1-4)GlcNAc(b1-3)[GlcNAc(b1-3)Gal(b1-4)GlcNAc(b1-3)]GalNAc
# How it was run: as §1
# [27] = biological target: GlcNAc(b1-3)Gal(b1-4)GlcNAc(b1-6)[Gal(b1-3)]GalNAc
# How it was run: as §1
# [28] = biological target: GlcNAc(b1-3)Gal(b1-4)GlcNAc(b1-6)[GlcNAc(b1-3)Gal(b1-3)]GalNAc
# How it was run: as §1
# [29] = biological target: GlcNAc(b1-3)Gal(b1-4)GlcNAc(b1-6)[GlcNAc(b1-3)]Gal(b1-4)GlcNAc
# How it was run: as §1
# [30] = biological target: GlcNAc(b1-3)GalNAc
# How it was run: as §1
# [31] = biological target: GlcNAc(b1-3)Man
# How it was run: as §1
# [32] = biological target: GlcNAc(b1-3)[GlcNAc(b1-4)][GlcNAc(b1-6)]GlcNAc
# How it was run: as §1
# [33] = biological target: GlcNAc(b1-3)[GlcNAc(b1-6)]Gal(b1-4)GlcNAc
# How it was run: as §1
# [34] = biological target: GlcNAc(b1-3)[GlcNAc(b1-6)]GalNAc
# How it was run: as §1
# [35] = biological target: GlcNAc(b1-4)Gal(b1-4)GlcNAc
# How it was run: as §1
# [36] = biological target: GlcNAc(b1-4)GlcNAc
# How it was run: as §1
# [37] = biological target: GlcNAc(b1-4)GlcNAc(b1-4)GlcNAc
# How it was run: as §1
# [38] = biological target: GlcNAc(b1-4)GlcNAc(b1-4)GlcNAc(b1-4)GlcNAc(b1-4)GlcNAc
# How it was run: as §1
binder,measurement,setting,value
B1,glycan array binding signal (z-score),[1],-0.049
same,glycan array binding signal (z-score),[2],-0.072
same,glycan array binding signal (z-score),[3],-0.089
same,glycan array binding signal (z-score),[4],-0.052
same,glycan array binding signal (z-score),[5],-0.067
same,glycan array binding signal (z-score),[6],-0.056
same,glycan array binding signal (z-score),[7],-0.081
same,glycan array binding signal (z-score),[8],-0.035
same,glycan array binding signal (z-score),[9],-0.043
same,glycan array binding signal (z-score),[10],-0.063
same,glycan array binding signal (z-score),[11],-0.058
same,glycan array binding signal (z-score),[12],-0.025
same,glycan array binding signal (z-score),[13],-0.038
same,glycan array binding signal (z-score),[14],-0.055
same,glycan array binding signal (z-score),[15],-0.043
same,glycan array binding signal (z-score),[16],-0.018
same,glycan array binding signal (z-score),[17],-0.073
same,glycan array binding signal (z-score),[18],0.013
same,glycan array binding signal (z-score),[19],-0.016
same,glycan array binding signal (z-score),[20],-0.012
same,glycan array binding signal (z-score),[21],-0.074
same,glycan array binding signal (z-score),[22],-0.071
same,glycan array binding signal (z-score),[23],0.044
same,glycan array binding signal (z-score),[24],-0.017
same,glycan array binding signal (z-score),[25],-0.061
same,glycan array binding signal (z-score),[26],-0.067
same,glycan array binding signal (z-score),[27],-0.055
same,glycan array binding signal (z-score),[28],-0.052
same,glycan array binding signal (z-score),[29],-0.063
same,glycan array binding signal (z-score),[30],-0.082
same,glycan array binding signal (z-score),[31],-0.072
same,glycan array binding signal (z-score),[32],-0.047
same,glycan array binding signal (z-score),[33],-0.04
same,glycan array binding signal (z-score),[34],-0.015
same,glycan array binding signal (z-score),[35],-0.076
same,glycan array binding signal (z-score),[36],-0.058
same,glycan array binding signal (z-score),[37],-0.11
same,glycan array binding signal (z-score),[38],-0.084
